Laboratory results taken from ChEMBL document CHEMBL5606458, “ASAP - ZIKV NS2B-NS3 protease fluorescence single point” (2024).
The whole screen tested about 2,700 compounds, of which about 160 (5.9%) showed an effect of 50% or more. The list shows a part of the results.

Molecular target: Nonstructural protein 3 (Zika virus) (UniProt A0A024AXB9)
[1] = PRVABC59, Concentration 15.0 uM, Number of replicates 1.0
[2] = PRVABC59, Concentration 50.0 uM, Number of replicates 1.0
[3] = PRVABC59, Concentration 10.0 uM, Number of replicates 1.0

UniProt A0A024AXB9, sequence (A0A024AXB9 as listed by the source): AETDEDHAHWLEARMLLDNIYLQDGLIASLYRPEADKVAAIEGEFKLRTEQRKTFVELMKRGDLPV

C[C@H](NC(=O)c1cc(Cl)ccc1NS(=O)(=O)c1ccc(Oc2ccccc2Cl)cc1)c1c(F)cccc1F showed an inhibition [1] of 38.6%.

Cc1cc(Cl)c2c(N)ccc(C)c2n1 showed an inhibition (PRVABC59, Concentration 49.95 uM, Number of replicates 2.0, Standard deviation 1.4741281735170297 %) of 80.8% and an inhibition (PRVABC59, Concentration 99.9 uM, Number of replicates 2.0, Standard deviation 0.2024559271573544 %) of 83.6%.

Cc1cc(CO)c2cccc(Cc3cccc(C(=O)Nc4cc(C)[nH]n4)c3)c2n1 showed an inhibition (PRVABC59, Concentration 49.95 uM, Number of replicates 2.0, Standard deviation 3.093641395210206 %) of 6.52% and an inhibition (PRVABC59, Concentration 99.9 uM, Number of replicates 2.0, Standard deviation 2.134087804085351 %) of 9.51%.

With O=Cc1ccc(N2CCC(C(=O)Nc3ccc(F)nc3Br)CC2)cc1 the inhibition [2] was 20.4%.

Cc1ccc(C)n1CCN1CCN(C(=O)c2cc(Cl)ccc2NS(=O)(=O)c2ccc(Oc3ccccc3Cl)cc2)CC1 showed an inhibition [1] of 16.3%.

In the case of Cc1cnccc1NC(=O)c1ccccc1-c1nc(C(C)C)no1, the inhibition (PRVABC59, Concentration 49.5 uM, Number of replicates 2.0, Standard deviation 0.2610834999883118 %) is reported as -0.098%, the inhibition (PRVABC59, Concentration 99.01 uM, Number of replicates 2.0, Standard deviation 1.3020487023400833 %) is reported as -0.148% and the inhibition (PRVABC59, Concentration 198.0 uM, Number of replicates 2.0, Standard deviation 1.8545350914642316 %) is reported as 0.672%.

Compound CCN(Cc1ccc(F)cc1)C(=O)C1CCN(c2ccc(C=O)cc2)CC1 has an inhibition [3] of 24%.

In the case of CCN(C(=O)c1cc(Cl)ccc1NS(=O)(=O)c1ccc(Oc2ccccc2Cl)cc1)[C@H]1CCOC(C)(C)C1, the inhibition [1] is reported as 16.6%.

CCC(=O)Nc1cncc(C(=O)Nc2ccncc2C)c1 was tested, and the inhibition (PRVABC59, Concentration 49.5 uM, Number of replicates 2.0, Standard deviation 0.43924745880368476 %) was -2.29%, the inhibition (PRVABC59, Concentration 99.01 uM, Number of replicates 2.0, Standard deviation 0.3166668164880395 %) was -0.368% and the inhibition (PRVABC59, Concentration 198.0 uM, Number of replicates 2.0, Standard deviation 1.30548455557754 %) was 2.6%.

With CN(Cc1cccc2ccccc12)C(=O)c1cc(Cl)ccc1NS(=O)(=O)c1ccc(Oc2ccccc2Cl)cc1 the inhibition [1] was 19.1%.

With N#Cc1cc(F)c(NC(=O)C2CCN(c3ccc(C=O)cc3)CC2)cc1F the inhibition [2] was 24.4%.

With COc1cccc(F)c1CNC(=O)C1CCN(c2ccc(C=O)cc2)CC1 the inhibition [3] was 17.2%.

Work on O=C(Nc1cnc(Cl)c(Br)c1)c1cc(Cl)ccc1NS(=O)(=O)c1ccc(Oc2ccccc2Cl)cc1 yielded an inhibition [1] of 23%.

Work on Cc1cc(CO)c2cccc(Cc3cccc(C(=O)NCc4c(C)noc4C)c3)c2n1 yielded an inhibition (PRVABC59, Concentration 49.95 uM, Number of replicates 2.0, Standard deviation 0.6344586798768046 %) of -2.24% and an inhibition (PRVABC59, Concentration 99.9 uM, Number of replicates 2.0, Standard deviation 0.2674164432987103 %) of 1.65%.

In the case of CC(=O)N[C@@H](CCCN)C(=O)Nc1cccc2c(CO)cc(C)nc12, the inhibition (PRVABC59, Concentration 49.95 uM, Number of replicates 2.0, Standard deviation 2.340889239911572 %) is reported as 9.01% and the inhibition (PRVABC59, Concentration 99.9 uM, Number of replicates 2.0, Standard deviation 2.049858170273299 %) is reported as 41.2%.

CCCC[C@H](NC(C)=O)C(=O)N[C@H](C(=O)Nc1cccc(C(N)=O)c1)c1ccc(OCc2ccccc2)cc1 showed an inhibition (PRVABC59, Concentration 49.5 uM, Number of replicates 2.0, Standard deviation 1.5133642763760644 %) of 0.392%, an inhibition (PRVABC59, Concentration 99.01 uM, Number of replicates 2.0, Standard deviation 2.3397962878359877 %) of 3.8% and an inhibition (PRVABC59, Concentration 198.0 uM, Number of replicates 2.0, Standard deviation 2.8724328178638086 %) of 7.97%.

CS(=O)(=O)N1CCC(NC(=O)c2cc(Cl)ccc2NS(=O)(=O)c2ccc(Oc3ccccc3Cl)cc2)CC1 gave an inhibition [1] of 4.19%.

Work on O=C(Nc1ccn([C@H]2C[C@H](O)[C@@H](CO)O2)c(=O)n1)c1cc(Cl)ccc1NS(=O)(=O)c1ccc(Oc2ccccc2Cl)cc1 yielded an inhibition [1] of 24.9%.

With Cc1cnccc1NC(=O)c1cc(-n2ccnc2)ccn1 the inhibition (PRVABC59, Concentration 49.5 uM, Number of replicates 2.0, Standard deviation 2.257669729081069 %) was 1.73%, the inhibition (PRVABC59, Concentration 99.01 uM, Number of replicates 2.0, Standard deviation 0.9258765732907107 %) was 4.55% and the inhibition (PRVABC59, Concentration 198.0 uM, Number of replicates 2.0, Standard deviation 0.8678885788859061 %) was 7.6%.

With COC(=O)c1csc(Cn2cc(C3CCNCC3)c(C)n2)n1 the inhibition (PRVABC59, Concentration 49.5 uM, Number of replicates 2.0, Standard deviation 2.2121683444085645 %) was -1.63%, the inhibition (PRVABC59, Concentration 99.01 uM, Number of replicates 2.0, Standard deviation 1.3442857872536393 %) was -0.419% and the inhibition (PRVABC59, Concentration 198.0 uM, Number of replicates 2.0, Standard deviation 0.5654699997624443 %) was 0.211%.

In the case of O=Cc1ccc(N2CCC(C(=O)NCCCSc3ccccc3)CC2)cc1, the inhibition [2] is reported as 13.1%.

Work on O=Cc1ccc(N2CCC(C(=O)Nc3cc(Cl)cc(Cl)c3O)CC2)cc1 yielded an inhibition [2] of 92.4%.

Cc1nn(Cc2nnc(-c3ccccc3)o2)cc1C1CCNCC1 showed an inhibition (PRVABC59, Concentration 99.01 uM, Number of replicates 2.0, Standard deviation 1.440037610805296 %) of -4.21% and an inhibition (PRVABC59, Concentration 198.0 uM, Number of replicates 2.0, Standard deviation 2.052778441112922 %) of -3.03%.

NC(=O)c1cccc(NC(=O)[C@@H](NC(=O)OCc2ccccc2)c2ccc(OCc3ccccc3)cc2)c1 showed an inhibition (PRVABC59, Concentration 49.5 uM, Number of replicates 2.0, Standard deviation 2.723334632333852 %) of 2.73%, an inhibition (PRVABC59, Concentration 99.01 uM, Number of replicates 2.0, Standard deviation 2.0062374464699793 %) of 1.09% and an inhibition (PRVABC59, Concentration 198.0 uM, Number of replicates 2.0, Standard deviation 2.561936647709264 %) of -1.81%.

Work on Cc1cc(CO)c2cccc(Cc3ccccc3C(=O)N3CC4(CCCOC4)C3)c2n1 yielded an inhibition (PRVABC59, Concentration 49.95 uM, Number of replicates 2.0, Standard deviation 0.11535626154910505 %) of -6.69%.

Compound CNC(=O)[C@H]1CCCN1S(=O)(=O)c1ccc(Oc2ccccc2Cl)cc1 has an inhibition (PRVABC59, Concentration 49.5 uM, Number of replicates 2.0, Standard deviation 3.1007059656639053 %) of -3.34%, an inhibition (PRVABC59, Concentration 99.01 uM, Number of replicates 2.0, Standard deviation 2.6505010954273733 %) of -1.74% and an inhibition (PRVABC59, Concentration 198.0 uM, Number of replicates 2.0, Standard deviation 1.9572281637908444 %) of 2.36%.

O=C(Nc1c(Cl)cncc1Cl)c1cc(Cl)ccc1NS(=O)(=O)c1ccc(Oc2ccccc2Cl)cc1 was tested, and the inhibition [1] was 22%.

For Cc1nc2ccccc2n1C1CCN(C(=O)c2ccc3c(c2)B(O)OC3)CC1, the inhibition (PRVABC59, Concentration 49.5 uM, Number of replicates 2.0, Standard deviation 1.393997531456905 %) was -0.146%, the inhibition (PRVABC59, Concentration 99.01 uM, Number of replicates 2.0, Standard deviation 2.2888071148012052 %) was 0.882% and the inhibition (PRVABC59, Concentration 198.0 uM, Number of replicates 2.0, Standard deviation 2.2805219716146308 %) was 4.41%.

Work on O=C(c1cc(Cl)ccc1NS(=O)(=O)c1ccc(Oc2ccccc2Cl)cc1)N1CCN(CC(F)(F)F)CC1 yielded an inhibition [1] of 4.66%.

In the case of c1ccc(CN2CC[C@H](c3c[nH]c4ccccc34)C2)nc1, the inhibition (PRVABC59, Concentration 49.5 uM, Number of replicates 2.0, Standard deviation 0.34862524389059196 %) is reported as 3.08%, the inhibition (PRVABC59, Concentration 99.01 uM, Number of replicates 2.0, Standard deviation 1.827718653336993 %) is reported as 6.21% and the inhibition (PRVABC59, Concentration 198.0 uM, Number of replicates 2.0, Standard deviation 3.724650524123788 %) is reported as 13.2%.

Work on COc1ccc(-c2ccccc2C(=O)Nc2cnn(C)c2)cc1F yielded an inhibition (PRVABC59, Concentration 49.5 uM, Number of replicates 2.0, Standard deviation 0.9645356857936312 %) of -7.9%, an inhibition (PRVABC59, Concentration 99.01 uM, Number of replicates 2.0, Standard deviation 1.6719900941866965 %) of -6.85% and an inhibition (PRVABC59, Concentration 198.0 uM, Number of replicates 2.0, Standard deviation 2.864611711479339 %) of -3.37%.

O=C(NCCO)C1CCN(C(=O)c2cc(Cl)ccc2NS(=O)(=O)c2ccc(Oc3ccccc3Cl)cc2)CC1 gave an inhibition [1] of -1.93%.

O=C(Nc1cccc(Br)n1)c1cc(Cl)ccc1NS(=O)(=O)c1ccc(Oc2ccccc2Cl)cc1 was tested, and the inhibition [1] was 28.2%.

With O=Cc1ccc(N2CCC(C(=O)N3CCN(S(=O)(=O)N4CCOCC4)CC3)CC2)cc1 the inhibition [2] was 23.9%.

With O=C(c1cc(Cl)ccc1NS(=O)(=O)c1ccc(Oc2ccccc2Cl)cc1)N(Cc1ccco1)Cc1cccs1 the inhibition [1] was 13.2%.

CCCOc1ccc(NC(=O)c2cc(Cl)ccc2NS(=O)(=O)c2ccc(Oc3ccccc3Cl)cc2)cc1 showed an inhibition [1] of 43.9%.

NC(=O)[C@H](Cc1ccc(O)cc1)NC(=O)c1cc(Cl)ccc1NS(=O)(=O)c1ccc(Oc2ccccc2Cl)cc1 was tested, and the inhibition [1] was 4.46%.

O=C(NCC1CCC(C(F)(F)F)CC1)c1cc(Cl)ccc1NS(=O)(=O)c1ccc(Oc2ccccc2Cl)cc1 (configuration not stated) gave an inhibition [1] of 31.2%.

O=Cc1ccc(N2CCC(C(=O)N3CCC(c4noc5ccc(F)cc45)CC3)CC2)cc1 was tested, and the inhibition [2] was 7.26%.

Work on O=Cc1ccc(N2CCC(C(=O)N3CCC(c4nnc5n4CCCCC5)CC3)CC2)cc1 yielded an inhibition [2] of 20.7%.

O=Cc1ccc(N2CCC(C(=O)N3CCN(C(=O)OCc4ccccc4)CC3)CC2)cc1 gave an inhibition [2] of 22.1%.

Work on CCOc1ccc(CCNC(=O)C2CCN(c3ccc(C=O)cc3)CC2)cc1OC yielded an inhibition [2] of 25.2%.
